PubChem BioAssay AID1347120 (National Center for Advancing Translational Sciences (NCATS), 2019)
Screen size: about 390,000 compounds; about 930 (0.24%) were called active. This list was built around the results that the source calls inconclusive (neither active nor inactive); the mix of calls is not that of the screen. Calls follow the shape of the dose curve; as a rule, active = well fitted activation curve with a large enough effect; inconclusive = small, poorly fitted or top-dose-only effect; inactive = no such curve, though single readings can be large or run the other way. Potencies beside an inconclusive call are fits to weak or partial responses and may not hold up.

Assay: qHTS for Suppressors of FUS Proteinopathy: Primary screen using FUS-linked yeast assay; also: nearly all actives have a fitted effect of over 55% in size;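 as to growth rescue (activation): plate controls were DMSO vehicle for no effect and reference control for full effect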
Conditions: S. cerevisiae FUS-expressing, OD600, 24 h; Potency: growth rescue; growth rescue (activation): at 76.6 µM (top of the series)
Procedure, shortened: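 Galactose (2%) drives FUS expression in yeast precultured in raffinose; seeding density OD 0.005. Test compounds incubated 24hr at 30C and 99% humidity before absorbance at 600 nm was measured.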
Potency is read from the fitted curve at half-maximal effect; tags tell the direction and shape of the fitted curve.

Row | Compound | growth rescue (activation) | Potency
1 | O=C1C(=O)N(C2CCN(S(=O)(=O)c3ccccc3)CC2)CCN1Cc1ccccc1 | inactive: -5.31% | 
2 | COc1cccc(N2CCN(C(=O)C3CCCN(S(=O)(=O)c4ccc5c(c4)oc(=O)n5C)C3)CC2)c1 (centres undefined) |  | inactive
3 | CCOC(=O)C1=NOC(C(=O)NCc2ccccc2)(C(=O)c2ccc(OC)cc2)C1 (centres undefined) | inactive: 23.9% | 
4 | Cc1ccc(Cl)cc1N1CCN(C(=O)c2ccc(NS(=O)(=O)c3c(C)noc3C)cc2)CC1 |  | inconclusive: 22.4 µM [activator, partial curve, poor fit]
5 | COc1ccccc1CCNC(=O)C(=O)NCC(c1ccco1)S(=O)(=O)c1ccc(F)cc1 (centres undefined) | inactive: -3.37% | 
6 | O=C(O)CC/C(=C\c1ccccc1[N+](=O)[O-])c1nc2ccccc2s1 | inactive: 24.7% | 
7 | CCOC(=O)C(=O)NCC(c1cccnc1)N1CCN(c2ccccc2)CC1 (centres undefined) | inactive: -1.42% | 
8 | Cc1cc(C)c2c(c1)SC1=NC(c3ccccc3)(C(F)(F)F)NC(=O)N12 (centres undefined) |  | inconclusive: 39.8 µM [activator, partial curve, poor fit]
9 | COc1ccc(CCNC(=O)Cn2nc(C)c3c(C)n(-c4ccccc4)nc3c2=O)c(OC)c1 |  | inconclusive: 15.8 µM [activator, partial curve, poor fit]
10 | NS(=O)(=O)c1ccc(O)c(NC(=O)c2ccc([N+](=O)[O-])cc2)c1 | inactive: 15.9% | 
11 | Cc1ccc(-c2nc3c(c(SCC(=O)N(C)c4ccccc4)n2)Cc2c(CO)cnc(C)c2O3)cc1 |  | inconclusive: 50.1 µM [activator, single point]
12 | COC(=O)[C@@]12C[C@@H](CC(=O)NCc3cccc(C(F)(F)F)c3)C(=O)N(CCc3ccc(OC)c(OC)c3)C1=CCC(C)(C)C2 |  | inconclusive: 17.8 µM [activator, single point]
13 | CC(C)(C)OC(=O)N1CCC(c2c(C(=O)NCCc3ccsc3)cnn2-c2ccccc2Cl)CC1 |  | inconclusive: 28.2 µM [activator, single point]
14 | CC(C)C[C@H]1CNC(=S)N1C[C@H]1CCCN1C[C@H](Cc1ccccc1)N1C[C@H](Cc2ccc(O)cc2)N(CC2CCCCC2)C1=S |  | inconclusive: 28.2 µM [activator, single point]
15 | O=C(N/N=C/c1c[nH]c2ccccc12)C1COc2ccccc2O1 (centres undefined) | inactive: 13.5% | 
16 | COc1ccc2[nH]c3c(c2c1)CCN1C(=O)N([C@@H](C)C(=O)NC2CC2)C(=O)[C@]31C |  | inconclusive: 8.91 µM [activator, partial curve, poor fit]
17 | CCOc1ccccc1NS(=O)(=O)c1ccc2c(c1)CC(C)N2C(=O)C1CC1 (centres undefined) |  | inconclusive: 22.4 µM [activator, single point]
18 | Cn1c(CN2CCCCC2)nc2cc(NS(=O)(=O)c3ccc(Cl)cc3)ccc21 | inconclusive: 77.8% [activator] | 
19 | COc1ccc(C2CC(=O)N3CN(c4ccc(C)c(Cl)c4)CSC3=C2C#N)cc1 (centres undefined) |  | inconclusive: 20 µM [activator, partial curve]
20 | CN(C)c1ccc(C2C3=C(CCCC3=O)OC3=C2C(=O)CCC3)cc1 |  | inconclusive: 39.8 µM [activator, single point]

Row | Compound | growth rescue (activation) | Potency
21 | COc1ccc(C2=NS(=O)(=O)N(C)C(C(=O)N3CCC(C)CC3)=C2)cc1 | inactive: -10.3% | 
22 | CC(C)C1C(=O)N(Cc2cn(CC3CCCCC3)nn2)CCS(=O)(=O)N1Cc1ccc(-c2ccc(Cl)nc2)cc1 (centres undefined) |  | inconclusive: 25.1 µM [activator, single point]
23 | Cc1ccc(/C=C(\NC(=O)c2ccc(C)cc2)c2nc(=S)[nH][nH]2)cc1 | inactive: 36.6% | 
24 | Cc1ccc(S(=O)(=O)Nc2ccc(NC(=O)Nc3cccc(C(F)(F)F)c3)cc2)cc1 |  | inconclusive: 6.31 µM [activator, partial curve]
25 | Cc1nc(-c2ccccc2)sc1-c1ccn[nH]1 | inactive: -37.9% | 
26 | Cc1ccccc1NS(=O)(=O)c1ccc(S(=O)(=O)N2CCCC2)cc1 |  | inconclusive: 31.6 µM [activator, single point]
27 | Cc1cc(C(=O)CSc2nc3ccccc3c(=O)[nH]2)c(C)n1C |  | inconclusive: 50.1 µM [activator, single point]
28 | CCc1c(C)nc2nncn2c1Nc1ccc(Cl)cc1 | inactive: -0.712% | 
29 | CCOc1ccc(-c2cccc(NS(=O)(=O)c3cc([N+](=O)[O-])ccc3Cl)c2)nn1 |  | inconclusive: 14.1 µM [activator, partial curve]
30 | CN1C[C@@H]2[C@@H]3C(=O)N(Cc4ccccc4)C(=O)[C@@H]3[C@](Cc3ccccc3)(C1=O)N2C(=O)c1ccc(C(C)(C)C)cc1 |  | inconclusive: 17.8 µM [activator, partial curve, poor fit]
31 | CC(C)CN(CC(C)C)C1=N/C(=C\c2ccco2)C(=O)N1c1ccccc1 |  | inconclusive: 44.7 µM [activator, single point]
32 | Cc1cc(C)n(-c2nc3c(c(=O)[nH]c(=O)n3C)n2CC(O)COc2ccc(Cl)cc2Cl)n1 (centres undefined) |  | inconclusive: 50.1 µM [activator, partial curve, poor fit]
33 | Nc1nnnn1/N=C/c1ccc(Br)cc1 | inactive: 11% | 
34 | CC(C)C[C@H]1CN([C@@H](Cc2ccc(O)cc2)CN2CCC[C@@H]2CN2C(=S)NC[C@@H]2Cc2ccccc2)C(=S)N1CC1CCCCCC1 |  | inconclusive: 35.5 µM [activator, single point]
35 | CC(C)=CC1C(C(=O)Nc2ccc(S(=O)(=O)N3CCOCC3)cc2)C1(C)C (centres undefined) |  | inconclusive: 39.8 µM [activator, single point]
36 | O=S(=O)(Nc1ccc(C(O)(C(F)(F)F)C(F)(F)F)cc1)c1cccc2ccccc12 | inactive: 24.1% | 
37 | CN(C)S(=O)(=O)c1ccc(NC(=O)N2CCN(c3cccc(C(F)(F)F)c3)CC2)cc1 |  | inconclusive: 39.8 µM [activator, single point]
38 | COC(=O)[C@]12C[C@H](CC(=O)N3CCC(c4ccccc4)CC3)C(=O)N(Cc3ccc(Cl)cc3Cl)C1=C[C@H](C(C)C)O[C@@H]2C1CC1 |  | inconclusive: 22.4 µM [activator, partial curve, poor fit]
39 | COc1ccc(/C=N/NC(=O)c2ccccc2Cl)cc1CSc1nc2ccccc2s1 | inconclusive: 84.8% [activator] | 
